According to the supplement of paper PMC4967469:
Lines with a small IC50 respond at low doses; a limit (>, <) means that the fit lies beyond the doses tested. For AUC the same curve is integrated over the 256-fold range of doses and scaled to a fraction: 1 means no effect, lower means more sensitive. For some assays here: Any top dose called inferred was derived from the fitted curves, not read from the paper. For some assays here: An entry number marks a drug with two screens in the source, which often give different values.

How the values were obtained:
Assay in all cases: Viability of human cancer cell lines after 72 h of drug (GDSC screen)
SB-505124 = compound: Cc1cccc(-c2[nH]c(C(C)(C)C)nc2-c2ccc3c(c2)OCO3)n1 [SB-505124]; conditions: top dose 10 µM; top dose inferred
Experimental: (§1)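 Human cancer cell lines in 384-well plates, medium with 10% serum, drug for 72 h over a 256-fold dose range (nine 2-fold or five 4-fold steps up to the top dose). Adherent lines were fixed and stained with the nucleic acid dye Syto60, suspension lines read with resazurin; signal relative to control wells, capped at 0 and 100%. One two-parameter sigmoid per drug and line, fitted in a mixed model over all curves with the slope shared within a line.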

GSK690693 = compound: CCn1c(-c2nonc2N)nc2c(C#CC(C)(C)O)ncc(OC[C@H]3CCCNC3)c21 [GSK690693]; conditions: top dose 10.24 µM; top dose inferred
Experimental: as §1

UNC0638 = compound: COc1cc2c(NC3CCN(C(C)C)CC3)nc(C3CCCCC3)nc2cc1OCCCN1CCCC1 [UNC0638]
Experimental: as §1

PI-103 = compound: Oc1cccc(-c2nc(N3CCOCC3)c3oc4ncccc4c3n2)c1 [PI-103]; conditions: top dose 10.24 µM
Experimental: as §1

Tretinoin = compound: CC1=C(/C=C/C(C)=C/C=C/C(C)=C/C(=O)O)C(C)(C)CCC1 [Tretinoin]; conditions: top dose 10 µM; top dose inferred
Experimental: as §1

BX-795 = compound: O=C(NCCCNc1nc(Nc2cccc(NC(=O)N3CCCC3)c2)ncc1I)c1cccs1 [BX-795]; conditions: top dose 5 µM; top dose inferred
Experimental: as §1

[1] = top dose 20 µM, screen: GDSC drug entry 1236, top dose inferred
[2] = top dose 40 µM, screen: GDSC drug entry 245

| Cell Line | AUC (SB-505124) | IC50 (SB-505124) | AUC (GSK690693) | IC50 (GSK690693) | AUC (UNC0638; [1]) | IC50 (UNC0638; [1]) | AUC (UNC0638; [2]) | IC50 (UNC0638; [2]) | AUC (PI-103) | IC50 (PI-103) | AUC (Tretinoin) | IC50 (Tretinoin) | AUC (BX-795) | IC50 (BX-795) |
| --- | --- | --- | --- | --- | --- | --- | --- | --- | --- | --- | --- | --- | --- | --- |
| JHH-7 (liver, adherent) | 0.865 | 7.92 µM | 0.987 | > 10.2 µM | 0.982 | > 20 µM | 0.861 | 30.6 µM | 0.984 | > 10200 nM | 0.988 | > 10 µM | 0.897 | > 5 µM |
| JHOS-2 (ovary, adherent) | 0.977 | > 10 µM | 0.959 | > 10.2 µM | 0.969 | > 20 µM | 0.901 | > 40 µM | 0.809 | 6420 nM | 0.972 | > 10 µM | 0.742 | 1.76 µM |
| JHOS-3 (ovary, adherent) | 0.982 | > 10 µM | 0.983 | > 10.2 µM | 0.917 | > 20 µM | 0.893 | > 40 µM | 0.783 | 5610 nM | 0.95 | > 10 µM | 0.984 | > 5 µM |
| JHU-011 (head and neck, adherent) | 0.984 | > 10 µM | 0.916 | > 10.2 µM | 0.795 | 9.13 µM | 0.656 | 6.73 µM | 0.324 | 208 nM | 0.929 | > 10 µM | 0.762 | 1.76 µM |
| JHU-022 (head and neck, adherent) | 0.978 | > 10 µM | 0.977 | > 10.2 µM | 0.827 | 16.9 µM | 0.974 | > 40 µM | 0.789 | 5900 nM | 0.877 | > 10 µM | 0.795 | 3.06 µM |
| JIMT-1 (breast, adherent) | 0.944 | > 10 µM | 0.957 | > 10.2 µM | 0.896 | > 20 µM | 0.921 | > 40 µM | 0.622 | 1430 nM | 0.968 | > 10 µM | 0.835 | 3.67 µM |
| JURL-MK1 (chronic myeloid leukaemia, suspension) | 0.931 | > 10 µM | 0.975 | > 10.2 µM | 0.808 | 10.3 µM | 0.647 | 6.36 µM | 0.721 | 2700 nM | 0.767 | 3.71 µM | 0.837 | 3.34 µM |
| K2 (melanoma, adherent) | 0.972 | > 10 µM | 0.982 | > 10.2 µM | 0.847 | > 20 µM | 0.915 | > 40 µM | 0.925 | > 10200 nM | 0.982 | > 10 µM | 0.981 | > 5 µM |
| KMH-2 (thyroid, adherent) | 0.974 | > 10 µM | 0.949 | > 10.2 µM | 0.817 | 9.68 µM | 0.956 | > 40 µM | 0.266 | 151 nM | 0.976 | > 10 µM | 0.76 | 1.58 µM |
| KMRC-1 (kidney, adherent) | 0.967 | > 10 µM | 0.987 | > 10.2 µM | 0.983 | > 20 µM | 0.909 | > 40 µM | 0.967 | > 10200 nM | 0.985 | > 10 µM | 0.926 | > 5 µM |
| KMRC-20 (kidney, adherent) | 0.988 | > 10 µM | 0.989 | > 10.2 µM | 0.988 | > 20 µM | 0.987 | > 40 µM | 0.989 | > 10200 nM | 0.989 | > 10 µM | 0.83 | 3.22 µM |
| KMS-11 (myeloma, suspension) | 0.972 | > 10 µM | 0.96 | > 10.2 µM | 0.749 | 5.66 µM | 0.687 | 7.65 µM | 0.607 | 1200 nM | 0.963 | > 10 µM | 0.988 | > 5 µM |
| KON (head and neck, adherent) | 0.974 | > 10 µM | 0.987 | > 10.2 µM | 0.753 | 6.58 µM | 0.984 | > 40 µM | 0.952 | > 10200 nM | 0.987 | > 10 µM | 0.837 | 3.24 µM |
| KP-2 (pancreas, adherent) | 0.962 | > 10 µM | 0.949 | > 10.2 µM | 0.985 | > 20 µM | 0.907 | > 40 µM | 0.927 | > 10200 nM | 0.952 | > 10 µM | 0.857 | 4.61 µM |
| KP-3 (pancreas, adherent) | 0.95 | > 10 µM | 0.956 | > 10.2 µM | 0.834 | 16.7 µM | 0.77 | 18.1 µM | 0.941 | > 10200 nM | 0.984 | > 10 µM | 0.896 | > 5 µM |
| KU-19-19 (bladder, adherent) | 0.986 | > 10 µM | 0.984 | > 10.2 µM | 0.789 | 8.81 µM | 0.987 | > 40 µM | 0.978 | > 10200 nM | 0.97 | > 10 µM | 0.908 | > 5 µM |

| Cell Line | AUC (SB-505124) | IC50 (SB-505124) | AUC (GSK690693) | IC50 (GSK690693) | AUC (UNC0638; [1]) | IC50 (UNC0638; [1]) | AUC (UNC0638; [2]) | IC50 (UNC0638; [2]) | AUC (PI-103) | IC50 (PI-103) | AUC (Tretinoin) | IC50 (Tretinoin) | AUC (BX-795) | IC50 (BX-795) |
| --- | --- | --- | --- | --- | --- | --- | --- | --- | --- | --- | --- | --- | --- | --- |
| KYAE-1 (oesophagus, suspension) | 0.948 | > 10 µM | 0.362 | 0.256 µM | 0.796 | 10.5 µM | 0.724 | 11.6 µM | 0.238 | 101 nM | 0.799 | 5.39 µM | 0.975 | > 5 µM |
| KYM-1 (rhabdomyosarcoma, adherent) | 0.852 | 6.06 µM | 0.991 | > 10.2 µM | 0.864 | 13.4 µM | 0.894 | 35.9 µM | 0.641 | 1470 nM | 0.957 | > 10 µM | 0.861 | 3.29 µM |
| KYSE-50 (oesophagus, adherent) | 0.989 | > 10 µM | 0.923 | > 10.2 µM | 0.989 | > 20 µM | 0.916 | > 40 µM | 0.225 | 111 nM | 0.927 | > 10 µM | 0.888 | 4.8 µM |
| KYSE-150 (oesophagus, adherent) | 0.988 | > 10 µM | 0.945 | > 10.2 µM | 0.831 | 11.9 µM | 0.901 | > 40 µM | 0.778 | 3980 nM | 0.987 | > 10 µM | 0.841 | 3.27 µM |
| KYSE-220 (oesophagus, adherent) | 0.949 | > 10 µM | 0.8 | 5.29 µM | 0.83 | 13.5 µM | 0.885 | > 40 µM | 0.419 | 379 nM | 0.886 | > 10 µM | 0.801 | 2.6 µM |
| KYSE-410 (oesophagus, adherent) | 0.984 | > 10 µM | 0.913 | > 10.2 µM | 0.802 | 10.6 µM | 0.856 | 35.6 µM | 0.98 | > 10200 nM | 0.968 | > 10 µM | 0.822 | 3.19 µM |
| KYSE-450 (oesophagus, adherent) | 0.98 | > 10 µM | 0.88 | 9.55 µM | 0.8 | 9.05 µM | 0.643 | 6.05 µM | 0.342 | 240 nM | 0.961 | > 10 µM | 0.949 | > 5 µM |
| KYSE-510 (oesophagus, adherent) | 0.991 | > 10 µM | 0.98 | > 10.2 µM | 0.827 | 9.55 µM | 0.847 | 22.3 µM | 0.91 | 10200 nM | 0.938 | > 10 µM | 0.864 | 3.21 µM |
| KYSE-520 (oesophagus, adherent) | 0.979 | > 10 µM | 0.907 | > 10.2 µM | 0.825 | 18 µM | 0.803 | 28.4 µM | 0.481 | 558 nM | 0.957 | > 10 µM | 0.902 | > 5 µM |
| LC-1-sq (lung squamous cell carcinoma, adherent) | 0.953 | > 10 µM | 0.948 | > 10.2 µM | 0.828 | 15.2 µM | 0.751 | 15.1 µM | 0.978 | > 10200 nM | 0.931 | > 10 µM | 0.907 | > 5 µM |
| LCLC-97TM1 (large cell lung carcinoma, adherent) | 0.981 | > 10 µM | 0.678 | 2.12 µM | 0.756 | 7.43 µM | 0.648 | 6.7 µM | 0.313 | 181 nM | 0.937 | > 10 µM | 0.861 | 4.94 µM |
| LCLC-103H (large cell lung carcinoma, adherent) | 0.99 | > 10 µM | 0.917 | > 10.2 µM | 0.99 | > 20 µM | 0.759 | 12.7 µM | 0.532 | 776 nM | 0.937 | > 10 µM | 0.866 | 3.78 µM |
| LK-2 (lung squamous cell carcinoma, adherent) | 0.971 | > 10 µM | 0.989 | > 10.2 µM | 0.791 | 8.42 µM | 0.68 | 7.7 µM | 0.721 | 2590 nM | 0.989 | > 10 µM | 0.768 | 1.77 µM |
| LN-18 (glioma, adherent) | 0.993 | > 10 µM | 0.993 | > 10.2 µM | 0.987 | > 20 µM | 0.895 | 32.2 µM | 0.994 | > 10200 nM | 0.992 | > 10 µM | 0.902 | 4.31 µM |
| LNZTA3WT4 (glioma, adherent) | 0.93 | > 10 µM | 0.982 | > 10.2 µM | 0.882 | > 20 µM | 0.869 | 35.7 µM | 0.796 | 4670 nM | 0.989 | > 10 µM | 0.868 | 4.42 µM |
